# Measurements: PubChem BioAssay AID1030 (National Center for Advancing Translational Sciences (NCATS), 2008)
# The campaign covered roughly 220,000 compounds. About 16,000 (7.3%) were called active. Inconclusive means that the source gave no clear call. Such entries were picked first, then a sample of the others. Calls come from the whole dose curve; as a rule, active = well fitted inhibition curve with a large enough effect (not every such curve was filed as active); inconclusive = small, poorly fitted or top-dose-only effect, or another doubt; inactive = no such curve, though single readings can be large or run the other way. No potency is given beside an inconclusive call; the fits are too rough.
# Biological target: Aldehyde dehydrogenase 1A1 (Homo sapiens) (UniProt P00352)
# Assay: qHTS Assay for Inhibitors of Aldehyde Dehydrogenase 1 (ALDH1A1);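 for activity, negative = inhibition: plate controls were no enzyme wells and a reference inhibitor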
# Conditions: Purified ALDH1A1, NADH fluorescence, propionaldehyde substrate; series mostly up to 75.3 µM; activity, negative = inhibition: at the top concentration
# Potency is the fitted concentration of half-maximal effect; tags give direction and shape of the fitted curve.
# UniProt P00352, sequence (P00352 whole entry, looked up): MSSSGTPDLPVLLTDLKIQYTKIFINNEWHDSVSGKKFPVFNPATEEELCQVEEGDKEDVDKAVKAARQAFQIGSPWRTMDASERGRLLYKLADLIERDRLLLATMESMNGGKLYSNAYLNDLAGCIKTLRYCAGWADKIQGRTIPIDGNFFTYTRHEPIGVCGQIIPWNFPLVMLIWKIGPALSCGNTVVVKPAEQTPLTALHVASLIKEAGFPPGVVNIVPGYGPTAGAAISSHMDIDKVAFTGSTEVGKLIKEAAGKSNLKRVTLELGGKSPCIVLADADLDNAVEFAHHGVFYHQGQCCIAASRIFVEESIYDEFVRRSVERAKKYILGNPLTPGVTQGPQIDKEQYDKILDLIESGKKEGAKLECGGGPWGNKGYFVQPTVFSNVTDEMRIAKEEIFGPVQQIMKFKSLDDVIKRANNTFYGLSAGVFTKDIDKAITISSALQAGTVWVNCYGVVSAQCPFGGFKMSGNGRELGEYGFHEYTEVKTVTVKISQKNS
Compound,Potency,"activity, negative = inhibition"
O=C(O)C1C2C=CC(O2)C1C(=O)Nc1ccccc1C(F)(F)F (stereo unspecified),active: 14.1 µM,–
O=c1c(-c2ccc(F)cc2)nc2cnc(N3CCOCC3)nc2n1C[C@H]1CCCO1,"inconclusive [inhibitor, single point]",–
Cc1cccc(CN2CCc3c(OCC(=O)N4CCCc5ccccc54)cccc3C2=O)c1,active: 15.8 µM,–
COc1ccc(CN=Nc2cc(C)nc(NS(=O)(=O)c3ccccc3Cl)n2)cc1,"inconclusive [inhibitor, single point]",–
COc1cccc(Cn2c(=O)c(C)nc3cnc(OCc4ccccc4)nc32)c1,"inconclusive [inhibitor, partial curve]",–
Cc1nc(C#N)c(N/N=C/c2cccc(Cl)c2)o1,"inconclusive [inhibitor, full curve]",–
O=C(COc1cccc(Cl)c1)NNC(=S)Nc1ccccc1,–,inactive: 14.9%
CC1=NN(c2ccc([N+](=O)[O-])cc2)C(c2ccccc2)C1 (stereo unspecified),"inconclusive [inhibitor, single point]",–
CC1CN(c2oc(COc3ccc(Cl)cc3Cl)nc2C#N)CC(C)O1 (stereo unspecified),–,inactive: 4.7%
N#CC1=C(N)Oc2n[nH]c(-c3ccccc3)c2C1c1cccnc1 (stereo unspecified),–,inactive: -10.5%
COc1ccc(/C=C/C(O)=C2/C(=O)N(C)C3(C)CC2c2ccccc2O3)cc1 (stereo unspecified),"inconclusive [inhibitor, single point]",–
Cc1nc2sc(-c3ccccc3)cc2c(=O)n1N,"inconclusive [inhibitor, single point]",–
CCCc1nc2c(sc3nc4c(cc32)COC(C)(C)C4)c(=O)n1Cc1ccco1,active: 0.891 µM,–
CC(=O)N1CCc2cc(C(=O)CN3CCCCC3)ccc21,active: 22.4 µM,–
COc1cccc(C(=O)NCc2ccc3c(c2)cc(C)n3C)c1,"inconclusive [inhibitor, single point]",–
CCCc1[nH]n(-c2nc3ccccc3s2)c(=O)c1C=NCCN1CCOCC1,"inconclusive [inhibitor, single point]",–
CN(C(=O)CSc1nnc(N)s1)c1c(N)n(Cc2ccccc2)c(=O)[nH]c1=O,"inconclusive [inhibitor, single point]",–
COc1ccc(CNC(=O)CCSCc2ccc(C)cc2)cc1,"inconclusive [inhibitor, partial curve]",–
Cc1cccc(C(=O)NC(=S)Nc2ccccc2C(=O)O)c1,"inconclusive [inhibitor, partial curve]",–
O=C(c1ccco1)N1CCN(c2cc(C(F)(F)F)nc3ncnn23)CC1,–,inactive: 3.96%
COc1ccc(C[C@@H]2CN3C(=NC[C@@H]3C)N2CCNC(=O)c2ccc(C)c(Br)c2)cc1,"inconclusive [inhibitor, single point]",–
COc1ccc(NC(=O)c2cc(-c3ccccc3)nc3c2c(C)nn3-c2ccccc2)c(OC)c1,–,inactive: 172%
O=c1[nH]c(=O)c2nc(-c3ccc(Cl)cc3)cnc2[nH]1,"inconclusive [inhibitor, partial curve]",–
Cn1c(C(=O)OCC(=O)NCc2ccco2)cc2sccc21,"inconclusive [inhibitor, single point]",–

Compound,Potency,"activity, negative = inhibition"
COCCn1c(=O)c(-c2cccs2)nc2cnc(Oc3cccc(Cl)c3)nc21,"inconclusive [inhibitor, partial curve]",–
COc1ccccc1C(=O)NCC(=O)N/N=C/c1cc(Br)ccc1OC(=O)/C=C\c1ccco1,–,inactive: -12.3%
COc1ccc(-n2cc(C(=O)Nc3cc([N+](=O)[O-])ccc3OC)c3ccccc3c2=O)cc1,–,inactive: -3.11%
CCCN=C1NC(=O)C(CC(=O)NCCc2ccc(OC)c(OC)c2)S1 (stereo unspecified),"inconclusive [inhibitor, single point]",–
Cc1ccc2nc(Cl)c(CNCc3ccccc3)cc2c1,–,inactive: 5.11%
O=C(Nc1nc(-c2cccc([N+](=O)[O-])c2)cs1)C(c1ccccc1)c1ccccc1,"inconclusive [inhibitor, partial curve]",–
O=C1Nc2cc(Cl)c(Cl)cc2N(O)N1c1ccccc1,"inconclusive [inhibitor, single point]",–
O=C(c1ccc2c(c1)OCO2)C1CCCN(C(=O)c2cnn(Cc3ccccc3)c2)C1 (stereo unspecified),active: 25.1 µM,–
S=c1[nH]nc(-c2ccco2)n1/N=C/c1ccc(Cl)cc1,active: 22.4 µM,–
S=c1[nH]nc(-c2cccnc2)n1Cc1ccccc1,active: 14.1 µM,–
O=C(NC1CCCC1)c1cc2c(ccc3ccccc32)o1,"inconclusive [inhibitor, partial curve]",–
CC(C)c1ccc(C(=O)N2CCCN(C(=O)c3ccc(C(C)C)cc3)CC2)cc1,active: 7.94 µM,–
O=C(N/N=C/c1coc2ccccc2c1=O)c1ccccc1,active: 3.98 µM,–
Cc1oc(C)c2c(=O)ccc3c(c12)OC(N)=C(C#N)C3c1ccccc1 (stereo unspecified),"inconclusive [inhibitor, single point]",–
CCOC(=O)c1c(NC(=O)C(C)S(=O)(=O)c2cn(CC)c3ccccc23)sc2c1CCCC2 (stereo unspecified),"inconclusive [inhibitor, single point]",–
CCOCCCN(C(=O)Nc1ccc(CC)cc1)C1CCN(C(C)=O)CC1,–,inactive: -0.111%
Cc1ccc(Sc2c(O)c3ccccc3n(C)c2=O)cc1,–,inactive: -5.65%
Cc1c(N=C/C=C/c2ccccc2)cnn1C,"inconclusive [inhibitor, single point]",–
CCOc1cc(C2/C(=C(\O)c3cc(C)ccc3C)C(=O)C(=O)N2CCN(C)C)ccc1O (stereo unspecified),–,inactive: 0.915%
CC1CCc2c(C(=O)NCCN3CCOCC3)csc2C1 (stereo unspecified),"inconclusive [inhibitor, single point]",–
O=C(CCc1ccc(S(=O)(=O)NCc2ccccc2)cc1)N1CCN(Cc2ccc3c(c2)OCO3)CC1,"inconclusive [inhibitor, single point]",–
O=C(Nc1ccccc1)c1ccc2nc(-c3ccco3)c(-c3ccco3)nc2c1,active: 0.178 µM,–
N#Cc1cnn2cc(-c3ncc(C(F)(F)F)cc3Cl)cnc12,"inconclusive [inhibitor, single point]",–
Cc1ccc([N+](=O)[O-])cc1NC(=O)Nc1ccc(S(N)(=O)=O)cc1,"inconclusive [inhibitor, single point]",–

Compound,Potency,"activity, negative = inhibition"
CCCOc1ccc(N2C(=O)CC(N3CCN(CCN=CC4=C(O)CC(C)(C)CC4=O)CC3)C2=O)cc1 (stereo unspecified),"inconclusive [inhibitor, single point]",–
COc1cccc(Cn2c(=O)c(-c3cccc(C#N)c3)nc3cnc(OC)nc32)c1,"inconclusive [inhibitor, partial curve]",–
Cc1c(Cl)c([N+](=O)[O-])nn1CCCC(=O)Nc1cccc(Cl)c1,"inconclusive [inhibitor, single point]",–
Cc1cccn2c(CN3CCNC(=O)CC3)c(C(=O)N(C)CCc3ccccc3)nc12,–,inactive: -0.65%
O=C(c1cc2c(s1)CCCC2)N1CCN(c2ccccc2)CC1,active: 22.4 µM,–
Cc1nc2cc(C(=O)N3CCc4ccccc43)ccc2n1-c1ccc(F)c(F)c1,"inconclusive [inhibitor, partial curve]",–
CC1CCCCC1NC(=O)CSc1nnnn1-c1ccccc1 (stereo unspecified),"inconclusive [inhibitor, single point]",–
O=C(Nc1nc(-c2cc3ccccc3oc2=O)cs1)c1ccc(Br)o1,"inconclusive [inhibitor, partial curve]",–
COC(=O)C1CCN(Cc2cn(-c3ccccc3)nc2-c2ccc3c(c2)OCO3)CC1,"inconclusive [inhibitor, single point]",–
O=C(NC(=S)Nc1ccc(CN2CCOCC2)cc1)c1cccc([N+](=O)[O-])c1,active: 12.6 µM,–
O=C(N/N=C/c1ccccc1C(=O)O)C(=O)N1CCCCC1,–,inactive: 2.31%
O=C(O)c1ccc(COc2ccc3ccccc3c2/C=C2/NC(=O)N(c3ccccc3)C2=O)cc1,"inconclusive [inhibitor, partial curve]",–
O=C(CN(C(=O)CNC(=O)c1ccco1)c1ccc2c(c1)OCO2)NC1CCCCC1,"inconclusive [inhibitor, partial curve]",–
CCOC(=O)c1cnc(-n2nc(C)cc2C)nc1NCc1ccccc1,"inconclusive [inhibitor, partial curve]",–
O=C1c2ccccc2S(=O)(=O)N1CC1CC(c2ccccc2)=NO1 (stereo unspecified),"inconclusive [inhibitor, partial curve]",–
Cc1ccc(-c2nnn(CC(=O)N(Cc3ccco3)C(C(=O)NC(C)(C)C)c3cccs3)n2)o1 (stereo unspecified),active: 28.2 µM,–
O=C(CN1CCN(c2ccccn2)CC1)NCc1cccs1,"inconclusive [inhibitor, partial curve, poor fit]",–
COc1ccc(/C=C\c2nc(=O)c3ccccc3o2)cc1,–,inactive: 1.92%
CN(C)Cc1ccc(O)c(CN(C)C)n1,–,inactive: -3.79% [at 13.5 µM]
COc1ccc(NC(=S)N2CCC(C(=O)N3CCCCCC3)CC2)cc1,active: 14.1 µM,–
CC1CCc2c(C(=O)NCC3CCCO3)csc2C1 (stereo unspecified),"inconclusive [inhibitor, single point]",–
CCCCS(=O)(=O)N1CN(S(=O)(=O)CCCC)C2NC(=O)NC21 (stereo unspecified),"inconclusive [inhibitor, partial curve]",–
Cc1oc2c(CN3CCOCC3)c(O)ccc2c(=O)c1-c1ccc(Br)cc1,"inconclusive [inhibitor, partial curve]",–
